PubChem BioAssay AID485294 (National Center for Advancing Translational Sciences (NCATS), 2010)
Hit rate of the full screen: of about 370,000 compounds, about 150 (0.041%) were called active. Inconclusive means that the source gave no clear call. Such entries were picked first, then a sample of the others. Calls follow the shape of the dose curve; as a rule, active = well fitted inhibition curve with a large enough effect; inconclusive = small, poorly fitted or top-dose-only effect; inactive = flat fitted curve, though single readings scatter. Potencies of inconclusive entries are left out as doubtful fits.

The compounds below were run against Beta-lactamase (Escherichia coli (strain K12)) (UniProt P00811) (assay: qHTS Inhibitors of AmpC Beta-Lactamase (assay with detergent)). Details: AmpC hydrolysis of nitrocefin, absorbance 480 nm, 0.01% Triton; activity change, negative = inhibition: at 114 µM (top of the series).
Summary of the method: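 AmpC (5.3 nM in the dispensed reagent) in 20 mM phosphate pH 7.0 with 0.01% (detergent screen) or 0.0001% Triton X-100 was preincubated with compounds for 15 min at room temperature. Nitrocefin was then added from an 800 uM solution, and hydrolysis was followed at 480 nm.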
Also: nearly all actives have a fitted effect of over 25% in size.
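For activity change, negative = inhibition in this document: 0% = no-compound wells and -100% = no-enzyme wells.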
Potency is read from the fitted curve at half-maximal effect; tags tell the direction and shape of the fitted curve.

UniProt P00811, sequence (P00811 whole entry, looked up): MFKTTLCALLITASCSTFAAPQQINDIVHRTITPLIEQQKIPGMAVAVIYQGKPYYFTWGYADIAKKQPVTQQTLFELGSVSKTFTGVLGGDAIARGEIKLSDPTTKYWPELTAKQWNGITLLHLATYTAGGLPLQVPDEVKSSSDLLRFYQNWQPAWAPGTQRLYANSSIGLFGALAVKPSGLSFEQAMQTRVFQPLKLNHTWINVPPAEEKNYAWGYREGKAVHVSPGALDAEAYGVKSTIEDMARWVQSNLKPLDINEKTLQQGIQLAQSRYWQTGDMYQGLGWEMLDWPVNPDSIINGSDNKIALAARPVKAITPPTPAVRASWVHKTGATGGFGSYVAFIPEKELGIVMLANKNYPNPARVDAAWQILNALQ

For `Nn1cnnc1N/N=C/c1ccc(Cl)c([N+](=O)[O-])c1`, which “activity change, negative = inhibition” value is on record?
The value was inactive: -14.9%.

Which Potency does the source give for `O=C(CN(C(=O)c1csnn1)c1ccc(F)c(Cl)c1)NCc1ccc(F)cc1` here?
The Potency was inconclusive [inhibitor, single point].

Which “activity change, negative = inhibition” value does the source give for `O=S(=O)(NC1c2cccc3cccc(c23)C1N1CCN(CCO)CC1)c1ccccc1` (configuration not stated) here?
Its value is inactive: -10.5%.

How did the Potency turn out when `FC(F)(F)c1cccc(Cn2nnnc2-c2cccc(C(F)(F)F)c2)c1` was run?
Its Potency is inconclusive [inhibitor, full curve].

`CC(C)[C@H](NC(=O)c1ccccc1)C(=O)NCCc1ccccc1` was tested. Which “activity change, negative = inhibition” value did it give?
The value was inactive: -5.65%.

How did the Potency turn out when `COC(=O)c1ccc(-c2noc(CN(C)CCC3CCCCO3)n2)cc1` (configuration not stated) was run?
The Potency was inconclusive [inhibitor, partial curve].

With `O=C(O)c1ccc(Cn2cnc3sc4c(c3c2=O)CCCC4)cc1` as the compound, how does the “activity change, negative = inhibition” value read?
The value was inactive: 4.43%.

`CCOn1c(=O)c(-c2ccc(Br)cc2)[n+]([O-])c2ccccc21` was tested. Which “activity change, negative = inhibition” value did it give?
Its value is inactive: -2.01%.

`CCOc1ccccc1N(CC)C(=O)c1nn(C)c2c1CSc1ccccc1-2` was tested. Which Potency did it give?
Its Potency is inconclusive [inhibitor, partial curve, poor fit].

Which “activity change, negative = inhibition” value does the source give for `CCCOc1ccc(-c2nn(-c3ccccc3)cc2C2NC(=O)NC(C)=C2C(=O)OC(C)C)cc1` (configuration not stated) here?
The value was inactive: -3.29%.

`O=C(CSc1n[nH]c(-c2ccccc2Br)n1)NC(=O)NCc1ccco1` was tested. Which Potency did it give?
The Potency was inconclusive [inhibitor, full curve, poor fit].

How did the “activity change, negative = inhibition” value turn out when `COc1cc2c(cc1NC(=O)CSc1nnc(COc3ccc(Cl)cc3)n1C)oc1ccccc12` was run?
Its value is inactive: 3.72%.

How did the “activity change, negative = inhibition” value turn out when `O=C(Nc1cccc([N+](=O)[O-])c1)N1CCCCCC1` was run?
The value was inactive: 2.45%.

With `Cc1c(NC(=O)C(C)OC(=O)C(NC(=O)c2ccco2)C(C)C)c(=O)n(-c2ccccc2)n1C` (configuration not stated) as the compound, how does the Potency read?
Its Potency is inconclusive [inhibitor, full curve].

`O=C(C1CCCO1)N1CCN(C(=S)Nc2ccccc2C(F)(F)F)CC1` (configuration not stated) was tested. Which Potency did it give?
Its Potency is inconclusive [inhibitor, full curve].

With `CCc1ccc(/C(C)=N/NC(=O)c2c[nH]c3ccccc23)s1` as the compound, how does the “activity change, negative = inhibition” value read?
The value was inactive: -5.61%.

For `O=C(O)C1CC(=O)N(Cc2cccs2)C1` (configuration not stated), which “activity change, negative = inhibition” value is on record?
Its value is inactive: -13.4%.

With `Cc1ccc(NC(=O)CN(C)C(=O)CSc2nnnn2C)cc1` as the compound, how does the “activity change, negative = inhibition” value read?
The value was inactive: -8.37%.

For `N#CC1=C(N)N(c2ccc(Oc3ccccc3)cc2)C(=O)C1`, which Potency is on record?
Its Potency is inconclusive [inhibitor, full curve].

With `O=C(Nc1cccc(C(F)(F)F)c1)c1scc2c1OCCO2` as the compound, how does the “activity change, negative = inhibition” value read?
The value was inactive: 1.55%.

With `Cc1ccc(C)c(N2CCN(CCCNC(=O)Cn3c(=O)c4cccn4c4cccnc43)CC2)c1` as the compound, how does the Potency read?
The Potency was inconclusive [inhibitor, full curve, poor fit].

`CCOc1ccc2nc(NCCO)[nH]c2c1` was tested. Which Potency did it give?
The Potency was inconclusive [inhibitor, full curve, poor fit].

With `CCCOc1ccc(-c2nnn(CC(=O)N3CCC(C)CC3)n2)cc1` as the compound, how does the Potency read?
The Potency was inconclusive [inhibitor, single point].

For `CCC(C)NC(=O)CSc1nc2ccccc2c(=O)n1CCCN1CCCCC1` (configuration not stated), which Potency is on record?
Its Potency is inconclusive [inhibitor, full curve, poor fit].

Which Potency does the source give for `COc1ccc(C(OC(=O)c2ccco2)C(=O)NCc2ccc(C)cc2)cc1` (configuration not stated) here?
The Potency was inconclusive [inhibitor, full curve, poor fit].

`CCSc1cc(N2CCCC2)nc(-c2ccc(C)cc2)n1` was tested. Which Potency did it give?
Its Potency is inconclusive [inhibitor, partial curve].

With `CC(C)(C)C1(O)CC(C(F)(F)F)=NN1C(=O)Cc1ccc([N+](=O)[O-])cc1` (configuration not stated) as the compound, how does the Potency read?
Its Potency is inconclusive [inhibitor, single point].

With `O=C1OC(c2ccccc2)c2ccccc21` (configuration not stated) as the compound, how does the Potency read?
Its Potency is inconclusive [inhibitor, partial curve, poor fit].

How did the Potency turn out when `Cc1ccc(/C=C/C(=O)Nc2nc3ccccc3[nH]2)cc1` was run?
The Potency was inconclusive [inhibitor, partial curve, poor fit].

`C/C(=N\N1CCN(c2ccccc2)CC1)c1ccncc1` was tested. Which Potency did it give?
The Potency was inconclusive [inhibitor, single point].

With `O=C(COC(=O)C1=COCCO1)Nc1ccc(F)c(F)c1` as the compound, how does the Potency read?
The Potency was inconclusive [inhibitor, partial curve, poor fit].

Which “activity change, negative = inhibition” value does the source give for `COc1ccc(C(=O)NC(=S)N2CCCc3ccccc32)cc1OC` here?
The value was inactive: -12.6%.

Which Potency does the source give for `Cc1ccc(CNCC2CCCO2)s1` (configuration not stated) here?
The Potency was inconclusive [inhibitor, full curve, poor fit].

For `C[C@]12CCC(=O)C=C1C=C[C@@H]1[C@@H]2CC[C@@]2(C)[C@H]1CC[C@@]2(O)CCC(=O)O`, which Potency is on record?
Its Potency is inconclusive [inhibitor, full curve, poor fit].

Which Potency does the source give for `Cc1cccc(NC(=S)NCC(c2cccnc2)N2CCOCC2)c1` (configuration not stated) here?
The Potency was inconclusive [inhibitor, partial curve, poor fit].

How did the Potency turn out when `COc1cc(OC)c(C(=O)OCC(=O)NCC2CCCCC2)cc1OC` was run?
The Potency was inconclusive [inhibitor, partial curve].

With `CS(=O)(=O)NNC(=O)c1cc2cc3ccccc3nc2s1` as the compound, how does the “activity change, negative = inhibition” value read?
The value was inactive: -11.7%.

How did the “activity change, negative = inhibition” value turn out when `CCC(C(=O)n1cccc1C#N)c1ccccc1C` (configuration not stated) was run?
Its value is inactive: 5.73%.

Which “activity change, negative = inhibition” value does the source give for `CC(=O)Nc1ccc(N(C)C)cc1[N+](=O)[O-]` here?
Its value is inactive: 0.296%.

For `COC1OC(COC(=O)c2ccccc2)C(OC(=O)c2ccccc2)C1OC(=O)c1ccccc1` (configuration not stated), which “activity change, negative = inhibition” value is on record?
The value was inactive: -5.7%.

With `CCOC(=O)C1CCN(C(=O)c2ccc(S(=O)(=O)Nc3ccccc3OC)cc2)CC1` as the compound, how does the Potency read?
Its Potency is inconclusive [inhibitor, full curve, poor fit].

For `COCC(=O)Nc1cc(C(=O)Nc2cccc(C)c2C)ccc1Cl`, which “activity change, negative = inhibition” value is on record?
The value was inactive: -0.139%.

Which “activity change, negative = inhibition” value does the source give for `CC(SCC(=O)Nc1ccccc1)c1nc2ccccc2c(=O)[nH]1` (configuration not stated) here?
Its value is inactive: 4.22%.

For `COc1ccccc1CNC(=O)c1ccc(N2CCCC2)c(NC(=O)NCc2ccccc2)c1`, which “activity change, negative = inhibition” value is on record?
The value was inactive: 9.11%.

With `OC(COc1ccc2ccccc2c1)CN1CCOCC1` (configuration not stated) as the compound, how does the Potency read?
The Potency was inconclusive [inhibitor, single point].

Which Potency does the source give for `CCOC(=O)c1cc2oc(C(c3nnnn3C3CCCCC3)N3CCOCC3)cc2[nH]1` (configuration not stated) here?
Its Potency is inconclusive [inhibitor, single point].

Which Potency does the source give for `COc1ccc(OCC(=O)Nc2c(Cl)ccc3nsnc23)cc1` here?
The Potency was inconclusive [inhibitor, full curve].
